Biological target: calmodulin (CaM)
Test: SEC

binding result: binds
B1: SUMO-tagged NaV1.5 III-IV linker peptide ([…]) (domain or fragment)
chain: not shown
